Laboratory results taken from publication PMC5892938.
The other results are listed elsewhere or left out. At the low end of the ranking the order means little.

biological target: GST-SBP-SLBP (stem-loop binding protein) (UniProt Q14493); assay: targeted RNA Bind-n-Seq; details: RBNS binding buffer: 25 mM Tris pH 7.5, 150 mM KCl, 3 mM MgCl2, 0.1% Tween, 0.5 mg/mL BSA, 1 mM DTT; 27 nM protein, 750 pM RNA pool; temperature not stated; high values mean tight binding;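 further: DESeq read counts versus GST-SBP nonspecific binding control pulldown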

Sequence	binding signal (log2 fold change)
GGUCACGUCUCAAUCAACUCUAGUCCAGGAGUUUUCUCCUGCAUAUUCAACAGCUCGCAGUCAAG	-0.232
GGUCACGUCUCAAUCAACUCCAACGAGGGGGGGAAAACCCCUUUACCCUCAACAUCAACAGCUCGCAGUCAAG	-0.251
GGUCACGUCUCAAUCAACUCAAUCUCAGGAGUUUUCUCCUGCAAAGUCAACAGCUCGCAGUCAAG	0.0364
GGUCACGUCUCAAUCAACUCACUAGAGGGGGGGAAAACCCCUUUACCCUCGUCAUCAACAGCUCGCAGUCAAG	0.051
GGUCACGUCUCAAUCAACUCUAUAGAGGGGGGGAAAACCCCUUUGCCCUCAAACUCAACAGCUCGCAGUCAAG	-0.177
GGUCACGUCUCAAUCAACUCUAAGGAGGGGGGGAAAACCCCUUUACCCUCACACUCAACAGCUCGCAGUCAAG	0.396
GGUCACGUCUCAAUCAACUCUUCAGAGGGGGGGAAAACCCCUUUGCCCUCACAUUCAACAGCUCGCAGUCAAG	-0.0405
GGUCACGUCUCAAUCAACUCUUCCUCCAGGGAAACCCCUGGUAUUCUCAACAGCUCGCAGUCAAG	-0.118
GGUCACGUCUCAAUCAACUCUUUCUCAGGAGUUUUCUCCUGUUAACUCAACAGCUCGCAGUCAAG	0.0478
GGUCACGUCUCAAUCAACUCAUUUCCCAGGGAAAACCCUGGCUAUUUCAACAGCUCGCAGUCAAG	0.135
GGUCACGUCUCAAUCAACUCAACUUCAGGAGUUUCCUCCUGCUAUCUCAACAGCUCGCAGUCAAG	0.103
GGUCACGUCUCAAUCAACUCAUCUCCCAGGGAAAUCCCUGGUAAAUUCAACAGCUCGCAGUCAAG	0.0544
GGUCACGUCUCAAUCAACUCUUCCUCAGGAGUUUACUCCUGCAAUUUCAACAGCUCGCAGUCAAG	-0.219
GGUCACGUCUCAAUCAACUCAUUCCCCAGGGAAAGCCCUGGCAAUUUCAACAGCUCGCAGUCAAG	-0.015
GGUCACGUCUCAAUCAACUCAAUCUCAGGAGUUUCCUCCUGCAUAUUCAACAGCUCGCAGUCAAG	0.134
GGUCACGUCUCAAUCAACUCUCUCGAGGGGGGGAAAACCCCUUUGCCCUCAUUAUCAACAGCUCGCAGUCAAG	0.232
GGUCACGUCUCAAUCAACUCAUCUUCCAGGGAAAGCCCUGGCUAUUUCAACAGCUCGCAGUCAAG	-0.0644
GGUCACGUCUCAAUCAACUCCUAAGAGGGGGGGAAAACCCCUUUGCCCUCAUAUUCAACAGCUCGCAGUCAAG	-0.0961
GGUCACGUCUCAAUCAACUCUUUCUCCAGGGAAACCCCUGGCAAUCUCAACAGCUCGCAGUCAAG	0.0706
GGUCACGUCUCAAUCAACUCAUUCUCAGGAGUUUCCUCCUGCUAAUUCAACAGCUCGCAGUCAAG	0.0579
GGUCACGUCUCAAUCAACUCAUUUUCAGGAGUUUUCUCCUGUAUUCUCAACAGCUCGCAGUCAAG	-0.0182
GGUCACGUCUCAAUCAACUCUUCUUCCAGGGAAAUCCCUGGUAUAUUCAACAGCUCGCAGUCAAG	-0.113
GGUCACGUCUCAAUCAACUCACAAGAGGGGGGGAAAACCCCUUUACCCUCAUCAUCAACAGCUCGCAGUCAAG	-0.0139
GGUCACGUCUCAAUCAACUCUUCCUCCAGGGAAACCCCUGGUUUUCUCAACAGCUCGCAGUCAAG	-0.241

Sequence	binding signal (log2 fold change)
GGUCACGUCUCAAUCAACUCUUCCCCAGGAGUUUUCUCCUGCAAUGUCAACAGCUCGCAGUCAAG	0.0332
GGUCACGUCUCAAUCAACUCAUCCUCAGGAGUUUCCUCCUGUUUAGUCAACAGCUCGCAGUCAAG	0.0674
GGUCACGUCUCAAUCAACUCAUCUUCCAGGGAAAGCCCUGGUAUUUUCAACAGCUCGCAGUCAAG	-0.0279
GGUCACGUCUCAAUCAACUCUAAAGAGGGGGGGAAAACCCCUUUACCCUCAAUCUCAACAGCUCGCAGUCAAG	0.253
GGUCACGUCUCAAUCAACUCUUUUUCAGGAGUUUUCUCCUGUAAUUUCAACAGCUCGCAGUCAAG	0.112
GGUCACGUCUCAAUCAACUCAUUCUCCAGGGAAAGCCCUGGCUAACUCAACAGCUCGCAGUCAAG	-0.267
GGUCACGUCUCAAUCAACUCAGUCCCCAGGGAAAGCCCUGGUAUUUUCAACAGCUCGCAGUCAAG	-0.098
GGUCACGUCUCAAUCAACUCAAUUUCCAGGGAAAACCCUGGUUUACUCAACAGCUCGCAGUCAAG	0.148
GGUCACGUCUCAAUCAACUCUCCCGAGGGGGGGAAAACCCCUUUGCCCUCAAAAUCAACAGCUCGCAGUCAAG	0.0406
GGUCACGUCUCAAUCAACUCAACUCCCAGGGAAAUCCCUGGCUAAUUCAACAGCUCGCAGUCAAG	-0.141
GGUCACGUCUCAAUCAACUCUAUUUCCAGGGAAAUCCCUGGCUUAUUCAACAGCUCGCAGUCAAG	0.488
GGUCACGUCUCAAUCAACUCUACUUCCAGGGAAAACCCUGGUAUACUCAACAGCUCGCAGUCAAG	0.0356
GGUCACGUCUCAAUCAACUCAAUCUCCAGGGAAAUCCCUGGUUAACUCAACAGCUCGCAGUCAAG	-0.285
GGUCACGUCUCAAUCAACUCAAAAGAGGGGGGGAAAACCCCUUUACCCUCAAUUUCAACAGCUCGCAGUCAAG	0.263
GGUCACGUCUCAAUCAACUCAAUCCCCAGGGAAAACCCUGGUAAAUUCAACAGCUCGCAGUCAAG	-0.251
GGUCACGUCUCAAUCAACUCACUCGAGGGGGGGAAAACCCCUUUACCCUCAUAUUCAACAGCUCGCAGUCAAG	-0.0297
GGUCACGUCUCAAUCAACUCAAUCUCAGGAGUUUUCUCCUGUUUUCUCAACAGCUCGCAGUCAAG	0.0671
GGUCACGUCUCAAUCAACUCAUCUUCAGGAGUUUCCUCCUGUUAAUUCAACAGCUCGCAGUCAAG	-0.0664
GGUCACGUCUCAAUCAACUCUUCCUCCAGGGAAAUCCCUGGUUUACUCAACAGCUCGCAGUCAAG	-0.052
GGUCACGUCUCAAUCAACUCAUUUCCAGGAGUUUGCUCCUGCUAUUUCAACAGCUCGCAGUCAAG	0.0582
GGUCACGUCUCAAUCAACUCUUUUUCCAGGGAAAUCCCUGGUUUACUCAACAGCUCGCAGUCAAG	0.0958
GGUCACGUCUCAAUCAACUCUAUUUCCAGGGAAACCCCUGGCUUAUUCAACAGCUCGCAGUCAAG	0.0519
GGUCACGUCUCAAUCAACUCAAUCUCAGGAGUUUCCUCCUGCUUACUCAACAGCUCGCAGUCAAG	-0.0736
